The list shows a part of the results.
Assays:
HSkMC = human skeletal muscle cells; experiment: cytotoxicity call (relative viability < 0.9); settings: 10 µM
HepG2 = experiment: cytotoxicity call (relative viability < 0.9); settings: 10 µM
S. aureus RN4220 = experiment: growth inhibition call (relative growth <= 0.2); settings: 50 µM

| Compound | cytotoxicity call (HSkMC) | cytotoxicity call (HepG2) | growth inhibition call (S. aureus RN4220) |
| --- | --- | --- | --- |
| C[C@@H]1CCCCO[C@H](CN(C)C(=O)Nc2ccccc2)[C@H](C)CN([C@H](C)CO)C(=O)c2cc(NC(=O)Nc3ccccc3)ccc2O1 | inactive | inactive | inactive |
| O=C(NCCN1CCOCC1)C(=O)NC[C@H]1OCCN1S(=O)(=O)c1ccc(F)cc1 | inactive | inactive | inactive |
| COc1ccc(C[C@@H]2c3cc(OC)c(OC)cc3CC[N@+]2(C)CCC(=O)OCCCCCOC(=O)CC[N@@+]2(C)CCc3cc(OC)c(OC)cc3[C@H]2Cc2ccc(OC)c(OC)c2)cc1OC | active | active | inactive |
| CO[C@@H](CN(C)C(=O)c1ccccc1F)[C@@H](C)CN([C@@H](C)CO)S(=O)(=O)c1ccc(Cl)cc1 | inactive | inactive | inactive |
| CC(C)NC(=O)N(C)C[C@H]1Oc2ccc(NC(=O)CCCN(C)C)cc2C(=O)N([C@H](C)CO)C[C@@H]1C | inactive | inactive | inactive |
| CCCCCCc1nc(CCCc2cc3c(c(CCCCCC)n2)[Si](C(C)C)(C(C)C)OC3)cc2c1[Si](C(C)C)(C(C)C)OC2 | inactive | inactive | inactive |
| C[C@H]1CN([C@@H](C)CO)S(=O)(=O)c2ccc(Br)cc2O[C@H]1CN(C)C(=O)Cc1ccccc1 | inactive | active | inactive |
| C/C=C/c1ccc2c(c1)O[C@@H](CN(C)Cc1ccc(C(=O)O)cc1)[C@H](C)CN([C@H](C)CO)S2(=O)=O | inactive | inactive | inactive |
| C[C@@H]1CN([C@H](C)CO)C(=O)Cc2cc(NS(=O)(=O)c3ccc(F)cc3)ccc2O[C@H]1CN(C)S(=O)(=O)c1cn(C)cn1 | inactive | inactive | inactive |
| C[C@H](CO)N1C[C@H](C)[C@H](CN(C)Cc2ccc(C(=O)O)cc2)OCCCC[C@H](C)Oc2ccc(NC(=O)Nc3ccc4c(c3)OCO4)cc2C1=O | inactive | inactive | inactive |
| COc1ccc([Si](C)(C)[C@@H]2[C@@H](CCn3cc([C@H](O)c4ccccc4)nn3)O[C@]3(C(=O)N(C)c4c(Br)cc(C)cc43)[C@H]2C)cc1 | active | inactive | inactive |
| C[C@@H]1CN([C@H](C)CO)C(=O)Cc2cc(NC(=O)Nc3ccc(C(F)(F)F)cc3)ccc2O[C@H]1CN(C)Cc1ccc(Cl)c(Cl)c1 | active | inactive | inactive |
| CC(C)c1c(O)ccc2c1CC[C@H]1C(C)(C)CCC[C@]21C | active | active | inactive |
| C[C@@H]1CCCCO[C@H](CN(C)Cc2ccccc2)[C@H](C)CN([C@H](C)CO)C(=O)c2cc(NC(=O)Nc3cccc4ccccc34)ccc2O1 | active | active | inactive |
| N#CCC(=O)Nc1ccncc1 | inactive | inactive | inactive |
| CCOC(=O)c1[nH]c(C)c(C(=O)C2=C(O)C(=O)N(CCN3CCOCC3)[C@H]2c2cccc(OC)c2OC)c1C | inactive | inactive | inactive |
| COc1ccc(CN(C)C[C@H]2OCCCC[C@H](C)Oc3ccc(NC(=O)Cc4ccccc4)cc3C(=O)N([C@@H](C)CO)C[C@H]2C)cc1 | inactive | inactive | inactive |
| COCC#Cc1ccc2c(c1)O[C@@H](CN(C)C(=O)Nc1ccc(OC)cc1)[C@H](C)CN([C@H](C)CO)S2(=O)=O | inactive | inactive | inactive |
| O=C(C[C@H]1CC[C@@H]2[C@H](COC[C@H](O)CN2C(=O)c2ccc3c(c2)OCO3)O1)NC1Cc2ccccc2C1 | inactive | inactive | inactive |
| Cc1ccc(S(=O)(=O)Nc2ccc3c(c2)C(=O)N([C@H](C)CO)C[C@H](C)[C@@H](CN(C)Cc2ccc(C(=O)O)cc2)OCCCC[C@@H](C)O3)cc1 | inactive | inactive | inactive |
| Cc1noc(C)c1S(=O)(=O)Nc1cccc2c1O[C@H](CN(C)Cc1ccncc1)[C@H](C)CN([C@H](C)CO)C2=O | inactive | inactive | inactive |
| Cc1ccc(S(=O)(=O)N(C)C[C@@H]2Oc3c(NC(=O)Nc4cccc5ccccc45)cccc3C(=O)N([C@H](C)CO)C[C@@H]2C)cc1 | inactive | inactive | inactive |
| CC(C)NC(=O)N(C)C[C@@H]1Oc2cc(-c3ccccc3F)ccc2S(=O)(=O)N([C@@H](C)CO)C[C@@H]1C | inactive | inactive | inactive |
| CO[C@H](CN(C)C(=O)Nc1ccc(C(F)(F)F)cc1)[C@H](C)CN(Cc1ccccc1Cl)[C@H](C)CO | inactive | inactive | inactive |
| C[C@@H]1CN([C@@H](C)CO)S(=O)(=O)c2ccc(C#Cc3ccccn3)cc2O[C@@H]1CN(C)Cc1ccccc1 | inactive | inactive | inactive |

Reference: the antibiotic and cytotoxicity screens of Wong et al. (2023)
